Assay [1] concerns the target desmin overexpressed in HEK293 cells (UniProt P17661). The assay is described as follows: co-IP; V5-tagged STIM1 fragments coexpressed with desmin in HEK293 cells; IP with V5 or desmin antibodies on protein A/G beads, IgG as negative control; Western blot with V5 antibody.
For assay [2], the target named is endogenous desmin (mouse skeletal muscle) (mouse (endogenous in skeletal muscle)) (UniProt P31001). The assay is described as follows: co-IP; skeletal muscle lysate (RIPA buffer) incubated with anti-desmin, anti-STIM1 or control IgG overnight; immunoblot with STIM1 antibody.
The target of assay [3] is biotinylated STIM1-CT (238-535 aa) from Sf9 cells (UniProt Q13586). Briefly: ELISA; 4 pmol biotin-STIM1-CT held on NeutrAvidin-coated wells; skeletal muscle lysate or lysate of HEK293 cells with His-tagged Orai1, 2 h at room temperature; detection with anti-desmin, anti-His tag, anti-TRPC1 and anti-STIM1 N-terminus antibodies; OD405; only the target purified.
For assay [4], the target named is His-tagged STIM1 CC1-SOAR (238-535 aa), coexpressed in E. coli (UniProt Q13586). Briefly: pull-down; His-tagged STIM1 fragment and desmin-CT coexpressed in E. coli BL21 from pETDUET-1; supernatant on cobalt beads; 300 mM NaCl, 20 mM Tris-Cl pH 7.5, 5% glycerol, 5 mM imidazole; wash with 25 mM, elution with 300 mM imidazole; Coomassie-stained gel.
In assay [5] the target is STIM1-His tagged CC1 peptides (238-342 aa) (UniProt Q13586). Described as above.
The target of assay [6] is biotinylated STIM1-CT (238-535 aa) from Sf9 cells (UniProt Q13586). The assay is described as follows: ELISA; wells coated with STIM1-CT incubated with lysates of C2C12 myoblasts transfected with rising amounts of desmin plasmid; endogenous STIM1 detected by anti-STIM1 N-terminus antibody; OD405; only the target purified.

Sequences of proteins named here, by UniProt entry; tags and fusion partners are left off. A change or cut given only in a name is not applied to a line headed by its entry. Residues count along the entry.
UniProt P17661: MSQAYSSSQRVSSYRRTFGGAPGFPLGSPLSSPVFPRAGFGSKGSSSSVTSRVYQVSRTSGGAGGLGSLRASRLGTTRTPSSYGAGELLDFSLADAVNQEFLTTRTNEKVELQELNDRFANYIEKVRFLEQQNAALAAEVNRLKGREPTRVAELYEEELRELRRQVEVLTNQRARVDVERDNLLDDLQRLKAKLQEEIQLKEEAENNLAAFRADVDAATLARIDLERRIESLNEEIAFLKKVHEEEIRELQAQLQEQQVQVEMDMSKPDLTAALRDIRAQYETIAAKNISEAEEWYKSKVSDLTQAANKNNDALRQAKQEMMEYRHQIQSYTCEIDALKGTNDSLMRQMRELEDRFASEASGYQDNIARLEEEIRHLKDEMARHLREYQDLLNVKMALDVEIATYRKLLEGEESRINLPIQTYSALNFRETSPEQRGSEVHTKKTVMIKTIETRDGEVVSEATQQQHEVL
UniProt P31001: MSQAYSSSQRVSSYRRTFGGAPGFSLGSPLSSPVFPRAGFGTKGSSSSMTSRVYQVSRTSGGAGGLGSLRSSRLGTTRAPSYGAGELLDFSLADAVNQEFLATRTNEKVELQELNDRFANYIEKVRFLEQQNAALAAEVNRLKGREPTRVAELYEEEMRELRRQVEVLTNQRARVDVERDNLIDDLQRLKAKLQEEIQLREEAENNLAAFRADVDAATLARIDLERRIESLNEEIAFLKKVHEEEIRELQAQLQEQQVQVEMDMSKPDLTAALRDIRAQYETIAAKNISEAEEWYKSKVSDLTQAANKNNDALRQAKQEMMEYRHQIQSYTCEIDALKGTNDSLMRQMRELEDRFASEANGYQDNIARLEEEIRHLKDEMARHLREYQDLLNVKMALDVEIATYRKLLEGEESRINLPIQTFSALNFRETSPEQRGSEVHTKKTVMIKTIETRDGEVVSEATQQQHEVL
UniProt P70302, residues 23-685: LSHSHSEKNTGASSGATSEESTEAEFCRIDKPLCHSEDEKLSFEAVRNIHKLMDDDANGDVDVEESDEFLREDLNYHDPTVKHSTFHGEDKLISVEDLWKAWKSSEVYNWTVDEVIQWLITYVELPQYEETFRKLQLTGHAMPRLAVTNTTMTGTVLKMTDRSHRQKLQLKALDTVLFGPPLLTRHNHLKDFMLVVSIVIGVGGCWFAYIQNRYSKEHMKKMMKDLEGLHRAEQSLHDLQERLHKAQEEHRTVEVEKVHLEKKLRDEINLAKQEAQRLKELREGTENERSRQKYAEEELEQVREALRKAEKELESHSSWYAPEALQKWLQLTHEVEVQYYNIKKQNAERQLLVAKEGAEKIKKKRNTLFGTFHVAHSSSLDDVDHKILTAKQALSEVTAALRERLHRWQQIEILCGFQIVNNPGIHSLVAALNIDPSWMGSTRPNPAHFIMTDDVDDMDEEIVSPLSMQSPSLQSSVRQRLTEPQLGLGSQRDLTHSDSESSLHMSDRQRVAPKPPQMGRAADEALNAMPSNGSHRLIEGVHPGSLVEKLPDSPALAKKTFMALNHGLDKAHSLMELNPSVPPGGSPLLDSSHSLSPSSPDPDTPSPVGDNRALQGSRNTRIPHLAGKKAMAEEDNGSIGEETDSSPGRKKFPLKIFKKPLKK
UniProt Q61056: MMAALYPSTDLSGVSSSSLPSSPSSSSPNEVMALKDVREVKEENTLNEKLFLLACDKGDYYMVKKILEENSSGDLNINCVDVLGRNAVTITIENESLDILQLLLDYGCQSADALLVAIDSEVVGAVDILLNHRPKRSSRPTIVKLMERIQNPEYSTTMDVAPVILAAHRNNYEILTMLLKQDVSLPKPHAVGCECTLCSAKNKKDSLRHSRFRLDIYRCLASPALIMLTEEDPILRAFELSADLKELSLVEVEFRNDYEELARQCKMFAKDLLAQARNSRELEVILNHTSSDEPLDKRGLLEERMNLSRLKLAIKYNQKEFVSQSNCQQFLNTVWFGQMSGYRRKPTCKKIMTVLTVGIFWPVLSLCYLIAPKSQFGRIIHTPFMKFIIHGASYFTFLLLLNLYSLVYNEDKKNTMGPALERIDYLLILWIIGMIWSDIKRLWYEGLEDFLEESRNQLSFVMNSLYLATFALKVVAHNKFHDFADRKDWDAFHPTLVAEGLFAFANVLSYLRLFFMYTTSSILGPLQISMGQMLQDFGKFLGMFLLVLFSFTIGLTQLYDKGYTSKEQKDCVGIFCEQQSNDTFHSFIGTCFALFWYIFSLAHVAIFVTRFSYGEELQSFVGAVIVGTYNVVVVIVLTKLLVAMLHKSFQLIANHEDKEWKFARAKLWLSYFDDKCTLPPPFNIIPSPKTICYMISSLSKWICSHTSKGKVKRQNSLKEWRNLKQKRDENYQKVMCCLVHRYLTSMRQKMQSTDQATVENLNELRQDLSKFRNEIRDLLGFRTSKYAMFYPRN

Results are given in words; binding and its absence hold for the method and conditions named. For some assays here: Binding seen in cells or lysates may run through a third protein. Some entries that bind do so weakly or less than the wild type.

Regarding “STIM1 P/S PBD domain (526-685 aa) with a V5 tag (from UniProt Q13586 526-685) (domain or fragment)”, the binding entry in assay [1] is “no binding”.
Still for that read-out and setting: the entry for “STIM1 inhibitory domain (448-535 aa) with a V5 tag (from UniProt Q13586 448-535) (domain or fragment)” is “no binding”.
Take “endogenous STIM1 (mouse skeletal muscle) (from UniProt P70302 23-685)”: the binding entry in assay [2] and in assay [3] was “binds” each time.
“endogenous TRPC1 (mouse skeletal muscle) (from UniProt Q61056 1-793)”: the binding result in assay [3] is on record as “no binding”.
“C-terminal desmin (371-470 aa) (from UniProt P17661 371-470) (domain or fragment)”: the binding entry in assay [4] is reported as “binds”; in assay [5], “no binding”.
For “endogenous STIM1 (C2C12 cells) (from UniProt P70302 23-685)”, in assay [6], the binding entry is on record as “binds”.

For the origin of these results see article PMC8492340.
